Assay results: US20230002486A1 (SPARX THERAPEUTICS, published 2023)

B1: Dblnk16, linker-enhanced single-chain bispecific antibody (bispecific antibody)
chain: DIQMTQSPSSLSASVGDRVTITCKSSQSLLNSGNQKSYLTWYQQKPGKAPKLLIYWASTLESGVPSRFSGSGSGTDYTLTISSLQPEDFATYYCQNAYFFPFTFGQGTKVEIKSSSGGEVQLVESGGGLVQPGGSLRLSCAASGFTFSRYWMSWVRQAPGKGLEWVANIKQDGSEKYYVDSVKGRFTISRDNAKNSLYLQMNSLRAEDTAVYYCAREGGWFGELAFDYWGQGTLVTVSSSGGGSSGSGGGRSGSEIVLTQSPGTLSLSPGERATLSCRASQRVSSSYLAWYQQKPGQAPRLLIYDASSRATGIPDRFSGSGSGTDFTLTISRLEPEDFAVYYCQQYGSLPWTFGQGTKVEIKSGGGGEVQLVESGGGLVQPGGSLRLSCAVSGYTFSMNWVRQAPGKGLEWVAWINMYTGEPTYADDFKGRFTISRDDSKNTLYLQMNSLRAEDTAVYYCARLYNGNSLDYWGQGTLVTVSSGGGGS[human IgG1 Fc with C220S (EU numbers) not printed]
notes: Single polypeptide with Fc; also called DbInk16
B2: Dblnk9, linker-enhanced single-chain bispecific antibody (bispecific antibody)
chain: DIQMTQSPSSLSASVGDRVTITCKSSQSLLNSGNQKSYLTWYQQKPGKAPKLLIYWASTLESGVPSRFSGSGSGTDYTLTISSLQPEDFATYYCQNAYFFPFTFGQGTKVEIKGSSRSSEVQLVESGGGLVQPGGSLRLSCAASGFTFSRYWMSWVRQAPGKGLEWVANIKQDGSEKYYVDSVKGRFTISRDNAKNSLYLQMNSLRAEDTAVYYCAREGGWFGELAFDYWGQGTLVTVSSSGSSGSSSSSGSGSGEIVLTQSPGTLSLSPGERATLSCRASQRVSSSYLAWYQQKPGQAPRLLIYDASSRATGIPDRFSGSGSGTDFTLTISRLEPEDFAVYYCQQYGSLPWTFGQGTKVEIKSSGSGGEVQLVESGGGLVQPGGSLRLSCAVSGYTFSMNWVRQAPGKGLEWVAWINMYTGEPTYADDFKGRFTISRDDSKNTLYLQMNSLRAEDTAVYYCARLYNGNSLDYWGQGTLVTVSSGGGGS[human IgG1 Fc with C220S (EU numbers) not printed]
notes: Single polypeptide with Fc; also called DbInk9
B3: Dblnk12, linker-enhanced single-chain bispecific antibody (bispecific antibody)
chain: DIQMTQSPSSLSASVGDRVTITCKSSQSLLNSGNQKSYLTWYQQKPGKAPKLLIYWASTLESGVPSRFSGSGSGTDYTLTISSLQPEDFATYYCQNAYFFPFTFGQGTKVEIKGSGSEVQLVESGGGLVQPGGSLRLSCAASGFTFSRYWMSWVRQAPGKGLEWVANIKQDGSEKYYVDSVKGRFTISRDNAKNSLYLQMNSLRAEDTAVYYCAREGGWFGELAFDYWGQGTLVTVSSSSSSSGGGGSGGSSSGEIVLTQSPGTLSLSPGERATLSCRASQRVSSSYLAWYQQKPGQAPRLLIYDASSRATGIPDRFSGSGSGTDFTLTISRLEPEDFAVYYCQQYGSLPWTFGQGTKVEIKSSSGGGEVQLVESGGGLVQPGGSLRLSCAVSGYTFSMNWVRQAPGKGLEWVAWINMYTGEPTYADDFKGRFTISRDDSKNTLYLQMNSLRAEDTAVYYCARLYNGNSLDYWGQGTLVTVSSGGGGS[human IgG1 Fc with C220S (EU numbers) not printed]
notes: Single polypeptide with Fc; also called DbInk12; DbInk 12
B4: Dblnk14, linker-enhanced single-chain bispecific antibody (bispecific antibody)
chain: DIQMTQSPSSLSASVGDRVTITCKSSQSLLNSGNQKSYLTWYQQKPGKAPKLLIYWASTLESGVPSRFSGSGSGTDYTLTISSLQPEDFATYYCQNAYFFPFTFGQGTKVEIKGSSGEVQLVESGGGLVQPGGSLRLSCAASGFTFSRYWMSWVRQAPGKGLEWVANIKQDGSEKYYVDSVKGRFTISRDNAKNSLYLQMNSLRAEDTAVYYCAREGGWFGELAFDYWGQGTLVTVSSSSGSSSGSRSGSSSGGSEIVLTQSPGTLSLSPGERATLSCRASQRVSSSYLAWYQQKPGQAPRLLIYDASSRATGIPDRFSGSGSGTDFTLTISRLEPEDFAVYYCQQYGSLPWTFGQGTKVEIKSGGGGGEVQLVESGGGLVQPGGSLRLSCAVSGYTFSMNWVRQAPGKGLEWVAWINMYTGEPTYADDFKGRFTISRDDSKNTLYLQMNSLRAEDTAVYYCARLYNGNSLDYWGQGTLVTVSSGGGGS[human IgG1 Fc with C220S (EU numbers) not printed]
notes: Single polypeptide with Fc; also called DbInk14
B5: Dblnk5, linker-enhanced single-chain bispecific antibody (bispecific antibody)
chain: DIQMTQSPSSLSASVGDRVTITCKSSQSLLNSGNQKSYLTWYQQKPGKAPKLLIYWASTLESGVPSRFSGSGSGTDYTLTISSLQPEDFATYYCQNAYFFPFTFGQGTKVEIKGGGSEVQLVESGGGLVQPGGSLRLSCAASGFTFSRYWMSWVRQAPGKGLEWVANIKQDGSEKYYVDSVKGRFTISRDNAKNSLYLQMNSLRAEDTAVYYCAREGGWFGELAFDYWGQGTLVTVSSSSGSGGGSSSGSSGGEIVLTQSPGTLSLSPGERATLSCRASQRVSSSYLAWYQQKPGQAPRLLIYDASSRATGIPDRFSGSGSGTDFTLTISRLEPEDFAVYYCQQYGSLPWTFGQGTKVEIKSGGRGGEVQLVESGGGLVQPGGSLRLSCAVSGYTFSMNWVRQAPGKGLEWVAWINMYTGEPTYADDFKGRFTISRDDSKNTLYLQMNSLRAEDTAVYYCARLYNGNSLDYWGQGTLVTVSSGGGGS[human IgG1 Fc with C220S (EU numbers) not printed]
notes: Single polypeptide with Fc; also called DbInk5
B6: Dblnk7, linker-enhanced single-chain bispecific antibody (bispecific antibody)
chain: DIQMTQSPSSLSASVGDRVTITCKSSQSLLNSGNQKSYLTWYQQKPGKAPKLLIYWASTLESGVPSRFSGSGSGTDYTLTISSLQPEDFATYYCQNAYFFPFTFGQGTKVEIKGGGSEVQLVESGGGLVQPGGSLRLSCAASGFTFSRYWMSWVRQAPGKGLEWVANIKQDGSEKYYVDSVKGRFTISRDNAKNSLYLQMNSLRAEDTAVYYCAREGGWFGELAFDYWGQGTLVTVSSGSSGRGSSGGSGGSSGEIVLTQSPGTLSLSPGERATLSCRASQRVSSSYLAWYQQKPGQAPRLLIYDASSRATGIPDRFSGSGSGTDFTLTISRLEPEDFAVYYCQQYGSLPWTFGQGTKVEIKGGSGEVQLVESGGGLVQPGGSLRLSCAVSGYTFSMNWVRQAPGKGLEWVAWINMYTGEPTYADDFKGRFTISRDDSKNTLYLQMNSLRAEDTAVYYCARLYNGNSLDYWGQGTLVTVSSGGGGS[human IgG1 Fc with C220S (EU numbers) not printed]
notes: Single polypeptide with Fc; also called DbInk7
B7: Dblnk8, linker-enhanced single-chain bispecific antibody (bispecific antibody)
chain: DIQMTQSPSSLSASVGDRVTITCKSSQSLLNSGNQKSYLTWYQQKPGKAPKLLIYWASTLESGVPSRFSGSGSGTDYTLTISSLQPEDFATYYCQNAYFFPFTFGQGTKVEIKGGGSSEVQLVESGGGLVQPGGSLRLSCAASGFTFSRYWMSWVRQAPGKGLEWVANIKQDGSEKYYVDSVKGRFTISRDNAKNSLYLQMNSLRAEDTAVYYCAREGGWFGELAFDYWGQGTLVTVSSGGGGSGGGGSGGGGSEIVLTQSPGTLSLSPGERATLSCRASQRVSSSYLAWYQQKPGQAPRLLIYDASSRATGIPDRFSGSGSGTDFTLTISRLEPEDFAVYYCQQYGSLPWTFGQGTKVEIKGSGSGGEVQLVESGGGLVQPGGSLRLSCAVSGYTFSMNWVRQAPGKGLEWVAWINMYTGEPTYADDFKGRFTISRDDSKNTLYLQMNSLRAEDTAVYYCARLYNGNSLDYWGQGTLVTVSSGGGGS[human IgG1 Fc with C220S (EU numbers) not printed]
notes: Single polypeptide with Fc; also called DbInk8
B8: Dblnk11, linker-enhanced single-chain bispecific antibody (bispecific antibody)
chain: DIQMTQSPSSLSASVGDRVTITCKSSQSLLNSGNQKSYLTWYQQKPGKAPKLLIYWASTLESGVPSRFSGSGSGTDYTLTISSLQPEDFATYYCQNAYFFPFTFGQGTKVEIKGSGSEVQLVESGGGLVQPGGSLRLSCAASGFTFSRYWMSWVRQAPGKGLEWVANIKQDGSEKYYVDSVKGRFTISRDNAKNSLYLQMNSLRAEDTAVYYCAREGGWFGELAFDYWGQGTLVTVSSSSGGSSGSSGSGSSGGEIVLTQSPGTLSLSPGERATLSCRASQRVSSSYLAWYQQKPGQAPRLLIYDASSRATGIPDRFSGSGSGTDFTLTISRLEPEDFAVYYCQQYGSLPWTFGQGTKVEIKSGGGSEVQLVESGGGLVQPGGSLRLSCAVSGYTFSMNWVRQAPGKGLEWVAWINMYTGEPTYADDFKGRFTISRDDSKNTLYLQMNSLRAEDTAVYYCARLYNGNSLDYWGQGTLVTVSSGGGGS[human IgG1 Fc with C220S (EU numbers) not printed]
notes: Single polypeptide with Fc; also called DbInk11
B9: Dblnk13, linker-enhanced single-chain bispecific antibody (bispecific antibody)
chain: DIQMTQSPSSLSASVGDRVTITCKSSQSLLNSGNQKSYLTWYQQKPGKAPKLLIYWASTLESGVPSRFSGSGSGTDYTLTISSLQPEDFATYYCQNAYFFPFTFGQGTKVEIKGGGGGEVQLVESGGGLVQPGGSLRLSCAASGFTFSRYWMSWVRQAPGKGLEWVANIKQDGSEKYYVDSVKGRFTISRDNAKNSLYLQMNSLRAEDTAVYYCAREGGWFGELAFDYWGQGTLVTVSSGSGSSSSSRSSSGSGGGEIVLTQSPGTLSLSPGERATLSCRASQRVSSSYLAWYQQKPGQAPRLLIYDASSRATGIPDRFSGSGSGTDFTLTISRLEPEDFAVYYCQQYGSLPWTFGQGTKVEIKSGGSGGEVQLVESGGGLVQPGGSLRLSCAVSGYTFSMNWVRQAPGKGLEWVAWINMYTGEPTYADDFKGRFTISRDDSKNTLYLQMNSLRAEDTAVYYCARLYNGNSLDYWGQGTLVTVSSGGGGS[human IgG1 Fc with C220S (EU numbers) not printed]
notes: Single polypeptide with Fc; also called DbInk13

What was measured:
[1] = biological target: T1, CLDN 18.2 fused with GFP at its C-terminal, on MCF7 cells (MCF7-CLDN 18.2) (human); assay: cell-based or functional assay
[2] = biological target: claudin 18.2 (CLDN 18.2), recombinant protein (human); assay: direct ELISA, coated recombinant CLDN 18.2 (FIG. 11B)
[3] = biological target: T1, CLDN 18.2 fused with GFP at its …; assay: cell-based or functional assay; remark: listed apart in the source
[4] = biological target: claudin 18.2 (CLDN 18.2), recombinant protein (human); assay: direct ELISA, coated recombinant CLDN 18.2
Description: ELISA assay was employed to determine the binding properties of the bispecific antibodies to their antigens. […] The wells were then reacted with goat anti human IgG antibody conjugated with horseradish peroxidase (HRP).

[5] = biological target: claudin 18.2 (CLDN 18.2), recombinant protein (human); assay: direct ELISA, coated recombinant CLDN 18.2 (FIG. 11A)
[6] = biological target: T2, CLDN 18.2 expressed on stably transfected cells (HEK293T-CLDN 18.2, MiaPaCa-CLDN 18.2) (human); assay: In-Cell ELISA on fixed HEK293T cells over-expressing CLDN 18.2
[7] = biological target: T2, CLDN 18.2 expressed on stably …; assay: cell-based or functional assay
[8] = biological target: T2, CLDN 18.2 expressed on stably …; assay: cell-based or functional assay; remark: listed apart in the source

Binder | ADCC Reporter in MCF7-CLDN 18.2, EC50 [1] [nM] | Kd [2] [nM] | ADCC reporter assay, EC50 (FIG. 24B) [3] [nM] | Kd [4] [nM] | Kd [5] [nM] | other results
B1 | 0.0025 | 0.222 | 0.00255 | 0.22 | – | –
B2 | 0.003 | – | – | 0.27 | 0.269 | ADCC reporter assay, EC50 (FIG. 24A) [3]: 0.00264 nM
B3 | 0.0044 | 0.205 | 0.00441 | 0.2 | – | Bmax [6]: 1.07 nM; Kd [6]: 0.632 nM; ADCC Reporter in HEK293-CLDN18.2, EC50 [7]: 0.005 nM; ADCC reporter assay, EC50 (FIG. 23A) [8]: 0.00484 nM
B4 | 0.004 | 0.2 | 0.00409 | 0.2 | – | –
B5 | – | – | – | 0.25 | 0.246 | –
B6 | – | – | – | 0.25 | 0.248 | –
B7 | – | – | – | 0.26 | 0.259 | –
B8 | – | – | – | 0.29 | 0.291 | –
B9 | – | 0.215 | – | 0.21 | – | –
